Experimental findings from the supplement of paper PMC11417369 are described below.

± gives the standard deviation of the averaged measurements. The list shows a part of the results.

The experiment concerns PfAP2-EXP AP2 domain (GST-tagged). Description: gcPBM binding intensity (ln(normalized median fluorescence intensity)); higher = stronger DNA binding. Summed up:
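Probes on an Agilent 4 × 180k array were primer-extended, double-stranded and 36 bp long, taken from intergenic genomic regions, with negative controls added. GST-tagged P. falciparum DNA-binding domains from E. coli, about 25 μg on average, were applied to the array for 1 h in 1× PBS containing 1% milk, 0.2 mg/ml BSA, 0.5% salmon testes DNA and 0.03% Triton X-100. Binding intensity, obtained after Alexa488 anti-GST antibody detection and a 488 nm scan, is the highest Masliner-normalised natural-log median intensity across replicate spots of either probe orientation.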
Consider “TTGGGTCAAACATAAACACACACAAAAAGAAAAAAT [CACACA_site8328]”, for which the “gcPBM binding intensity (ln)” value stood at 8.85 ± 0.55.
The result for “TCATAGTATGGACACACACACACACCCATATATATA [CACACA_site5033]” reads 8.78 ± 0.3.
Regarding “TTTCCATATTTTTAAAGTACATATTTCCGTTTCCAC [XGTACX_site7832]”, the “gcPBM binding intensity (ln)” value was found to be 8.64 ± 0.42.
For the sequence “ACATATAATATAAAGTGTACAAGAAAATAAAAATAA [XGTACX_site1273]”, the “gcPBM binding intensity (ln)” value worked out at 8.77 ± 0.38.
Regarding “TAATAATAAACAACCACACACAAAAAAACAAAAAAA [CACACA_site3269]”, the “gcPBM binding intensity (ln)” value amounted to 8.69 ± 0.74.
With “GTAGCACATATATATTGTACATAATATATACATTAT [XGTACX_site6354]”, the “gcPBM binding intensity (ln)” value was determined as 8.57 ± 0.16.
“ATTTAATTATGTAAGTGTACTTTGGAATATAATATT [XGTACX_site3186]”: the “gcPBM binding intensity (ln)” value was determined as 8.44 ± 0.41.
“GTGTGGTGCTCGAGGAGTACAAACAATATGTAATTT [XGTACX_site4160]”: the “gcPBM binding intensity (ln)” value is 8.82 ± 0.42.
Next, “TAAACAGACATATAAACACACATATAAACAGACATA [CACACA_site7214]”: 8.69 ± 0.56.
Consider “TTTATTTTATAATTCACACATATATACCTATTTTAT [CACACA_site5709]”, for which the “gcPBM binding intensity (ln)” value was 8.48 ± 0.36.
As to “AATATAAGTAATTATACACACTTAATATTTATATAC [CACACA_site7334]”, the “gcPBM binding intensity (ln)” value turned out to be 8.29 ± 0.48.
“TTTTCTTCCTATTATTGTACATATAGTATTCTTTCA [XGTACX_site4428]”: the “gcPBM binding intensity (ln)” value is 9.2 ± 0.61.
Regarding “AATGTAGGTTTATTTACACACAAATATAGATATATA [CACACA_site6825]”, the “gcPBM binding intensity (ln)” value came to 8.35 ± 0.36.
Next, “GTGTATTTATGTTATACACACAAAAATATTTTGTAT [CACACA_site4305]”: 8.71 ± 0.23; “ATGTTGCTCATATGAGTGCACGTTTCATTTCAGTTT [GTGCAC_site9865]”: 8.92 ± 0.26.
Turning to “ATATTTAAAAAAGAGTGTACTCATCTCTTTTAAAAA [XGTACX_site1160]”, the “gcPBM binding intensity (ln)” value was determined as 8 ± 0.26.
Turning to AATTTATATAATTTTGTGCACAATATTCATGTATAT, the “gcPBM binding intensity (ln)” value came out at 8.99 ± 0.22.
As for “CTATTTCGTATATATAGTACATATTATAACATACTA [XGTACX_site978]”, the “gcPBM binding intensity (ln)” value turned out to be 8.71 ± 0.27.
Next, “ACAAAATAAAAACACACACACAAACACAAAAAAATA [CACACA_site3390]”: 8.71 ± 0.57; “TATATATACAGACACATACACACAAATAAAAAAACA [CACACA_site3413]”: 8.89 ± 0.56; “AGAAGGTAAAAACACACACACACATACAAAAAAAAA [CACACA_site3767]”: 8.76 ± 0.56.
Take “AGCTCTTGTCATTTTGCACACACACCGGTATAGGTT [CACACA_site5654]”: the “gcPBM binding intensity (ln)” value turned out to be 9.12 ± 0.4.
“CCTCCATTAGATACTTGTACATAAAAGTTTTGATTG [XGTACX_site7428]”: the “gcPBM binding intensity (ln)” value turned out to be 8.57 ± 0.59.
In the case of “AGACTTTGTACAAACACACACATGAACACAATATTA [CACACA_site1360]”, the “gcPBM binding intensity (ln)” value amounted to 8.82 ± 0.5.
“AATCATAAAATCATATGTACACATTTTTCCTATGAT [XGTACX_site8799]”: the “gcPBM binding intensity (ln)” value came to 8.78 ± 0.41.
Turning to “AAAAAAAAAAAATAATAAATAAATAAAAATAAATGA [CACACA_negctrl_site1623]”, the “gcPBM binding intensity (ln)” value amounted to 8.32 ± 0.65.
In the case of “ATTTTATTAATTTGGTGTACTTAATTTATATTTTTC [XGTACX_site4947]”, the “gcPBM binding intensity (ln)” value turned out to be 8.6 ± 0.34.
Turning to “TTATAATAATTTTATGCACACAGAAAAATACAAGGT [CACACA_site9169]”, the “gcPBM binding intensity (ln)” value turned out to be 9.04 ± 0.21.
With “ATAATATATATATTAACACACATCCTTTTATGTATA [CACACA_site1203]”, the “gcPBM binding intensity (ln)” value is 8.52 ± 0.35.
Turning to “ATATGTGTGTAGTGTTCAATTATATTGATGTGAAGG [TGCATGCA_negctrl_site462]”, the “gcPBM binding intensity (ln)” value is 8.76 ± 0.42.
On to “GAACCGTGCAAATGTTGTACACTTTAAAAATATTCT [XGTACX_site4488]”, for which the “gcPBM binding intensity (ln)” value was determined as 8.57 ± 0.23.
With “AAAACGAAAATTTGGAAACCAAAGGAAAAACATAAT [GTGCAC_negctrl_site709]”, the “gcPBM binding intensity (ln)” value was 8.99 ± 0.51.
With “TAGGAGCCTAGACACACACACAAAAAAAAAAAAAAA [CACACA_site6911]”, the “gcPBM binding intensity (ln)” value was determined as 8.1 ± 0.54.
As to “TACATATAGAAACACACACACATATATATATATATA [CACACA_site1300]”, the “gcPBM binding intensity (ln)” value amounted to 10.1 ± 0.38.
In the case of “AAAAAGGTTATTGGTACACACATATGTATATATATA [CACACA_site552]”, the “gcPBM binding intensity (ln)” value worked out at 9.3 ± 0.057.
“TATACATACTCACCCACACACAAAAAAAAAAAAAAA [CACACA_site862]”: the “gcPBM binding intensity (ln)” value stood at 8.56 ± 0.63.
Next, “TATTTAATGTGATACTTATATTATTTTATGATTAAA [GTGCAC_negctrl_site25]”: 8.14 ± 0.42.
The result for “TATATAAGAATTTTTACACACATGAAAATGTAGATA [CACACA_site3735]” reads 8.26 ± 0.45; that for “ATATTCAATTCATACACACACAATTTAAGAATGATA [CACACA_site3883]”, 8.51 ± 0.56.
As for “CATATAGATTTGTTCACACACACACTAAAAAAAAAA [CACACA_site7212]”, the “gcPBM binding intensity (ln)” value was determined as 8.46 ± 0.47.
For “TTATTTTACTTTTATGCAACTAAAAATATTGCTATA [XGTACX_negctrl_site277]”, the “gcPBM binding intensity (ln)” value was 8.57 ± 0.33.
Next, “AATAAAATTTGCGATGCACACAGAATAGCTAATATG [CACACA_site8983]”: 8.54 ± 0.45.
Regarding “ACAAATGTGAGAAAGACACACATATAATAAAAAACA [CACACA_site1156]”, the “gcPBM binding intensity (ln)” value was 8.6 ± 0.48.
Next, “CACACGCACGAACACACACACACACGCACGCACATA [CACACA_site6305]”: 8.76 ± 0.47; “TACAGACATACATACACACATACATACAGACATACA [CACACA_site1941]”: 8.66 ± 0.26; “AAAAAAAAAATATTTGAACACACGAGGATATATAAA [CACACA_site139]”: 8.73 ± 0.53.
Take “TATATTTAATTATTTTGTACTCATATAAAGATGATG [XGTACX_site5488]”: the “gcPBM binding intensity (ln)” value came to 8.52 ± 0.38.
In the case of “TACATATTTACTATCACACACACGATATAAATAAAT [CACACA_site6701]”, the “gcPBM binding intensity (ln)” value came to 8.56 ± 0.39.
“ATACATATATAATTATGTACGTATATTTTATATAAC [XGTACX_site4292]”: the “gcPBM binding intensity (ln)” value is 8.47 ± 0.15.
On to “ATGAATAAAAAAGGTGGTACATATATATATATATAT [XGTACX_site7893]”, for which the “gcPBM binding intensity (ln)” value came to 10.1 ± 0.49.
Regarding “TGTCTTGTAAATTATTGTACTATTTAAAGTATAAAA [XGTACX_site7863]”, the “gcPBM binding intensity (ln)” value turned out to be 8.26 ± 0.4.
On to “AAAATAATATAAATAATATAAGTGAGCATATATATA [TGCATGCA_negctrl_site527]”, for which the “gcPBM binding intensity (ln)” value came out at 8.46 ± 0.13.
Turning to “TGTAGTCTGGAGAAAAGTACATAGTATCTGGTAACA [XGTACX_site4940]”, the “gcPBM binding intensity (ln)” value was found to be 8.68 ± 0.33.
With “TTTTAATTTTAAAAATGTACTTTTATTATTTTTAAT [XGTACX_site8300]”, the “gcPBM binding intensity (ln)” value is 8.26 ± 0.3.
On to “AATCTAATATAATGCACACATAAAAAAAAATCAAAC [CACACA_site3633]”, for which the “gcPBM binding intensity (ln)” value amounted to 8.87 ± 0.33.
Next, “AAATAGTTAAAAAGGCGTACACATAAATAAATAAAT [XGTACX_site2096]”: 9.04 ± 0.29; “TATTATATGTAGTTGAGTACATATAAATACATATAT [XGTACX_site7933]”: 8.43 ± 0.3.
